The supplement of paper PMC11417369
± gives the standard deviation of the averaged measurements. The list shows a part of the results.

system: PfAP2-G AP2 domain (GST-tagged); experiment: gcPBM binding intensity (ln(normalized median fluorescence intensity)); higher = stronger DNA binding
In short: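 The binding buffer was 1× PBS containing 1% milk, 0.2 mg/ml BSA, 0.5% salmon testes DNA and 0.03% Triton X-100. In it, GST-tagged P. falciparum DNA-binding domains expressed in E. coli were applied for 1 h to an Agilent 4 × 180k array of primer-extended double-stranded 36-bp intergenic genomic probes plus negative controls. Binding intensity, read with Alexa488 anti-GST antibody and a 488 nm scan, is the highest Masliner-normalised natural-log median intensity across replicate spots of either probe orientation.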

| Sequence | gcPBM binding intensity (ln) |
| --- | --- |
| ACACATATAAATAAAACATGCATATGTAAATATATA [TGCATGCA_site403] | 9.72 ± 0.2 |
| AGATATATTTTTTAAATTTAAAAATTATAAAATTTA [CACACA_negctrl_site533] | 9.655 ± 0.049 |
| AAATATATCTTCTTTGCACACTTAAAGGGAAGTGAT [CACACA_site343] | 10.02 ± 0.049 |
| AGAATACATCTATGAACACACAGAGTTTTAAAAAAT [CACACA_site5514] | 10 ± 0.17 |
| GTATGTATGTATGTATGTACGTATGTATGTATATAT [XGTACX_site3369] | 11.6 ± 0.98 |
| AATAATTATAAAAAATGTACAAAAAAAAAAAAAAAA [XGTACX_site3681] | 10.5 ± 0.83 |
| TTTTTCATTTAACAGAAGGGAGATAAAAAAAAAAAA [TGCATGCA_negctrl_site261] | 9.86 ± 0.3 |
| ATATTATTTTAAAGTACACACATATATTGATATATA [CACACA_site7153] | 11.5 ± 1 |
| ATTTTTAATTGAATCACACATTTCCTTTCTTTTGTG [CACACA_site4438] | 10.22 ± 0.035 |
| AAAATAATATTTAATACACACATAATTATAATATAA [CACACA_site782] | 9.845 ± 0.035 |
| TTAAAAAGAAAGTTCACACACATATATATGACGGAA [CACACA_site2602] | 10.14 ± 0.014 |
| ATTAAAAATAAGAAGAGTACATATAATATATATACA [XGTACX_site3092] | 11.3 ± 0.83 |
| ACCTTTTGGATTATATGTACATATATATATATATAT [XGTACX_site2687] | 11.4 ± 0.79 |
| TTAACATAGATATATACACACCAATGATGGCATTTA [CACACA_site6840] | 9.75 ± 0.042 |
| TATATATATATATATATACACACTATATAATTCAAA [CACACA_site1023] | 10 ± 0.4 |
| TTTTTTTTTTTTTAGAGTACACACTTTTTTACATTT [XGTACX_site8159] | 11.5 ± 1.1 |
| CATAAAATATAAAACACACACACATATATTTATATA [CACACA_site6247] | 10.04 ± 0.021 |
| AAATAAAAGTTCACCTGTACACACATATATATATGT [XGTACX_site3513] | 11.5 ± 0.66 |
| ATATATAATACTACAGTGCAATATATTATATTTGTT | 10.1 ± 0.2 |
| TTCCTCTTAAAATATACACACTGATTTAAGAAAAAA [CACACA_site5770] | 9.96 ± 0.28 |
| GCAAATCATGCTATGGTGCATATGTAAGATGAGCAT | 9.975 ± 0.078 |
| TTGTGATTATTATATTGTACAATAAGTATTAAAGAA [XGTACX_site2753] | 11 ± 0.64 |
| ATACTAAATATAAATTGTACTTTATTTATATTGAGA [XGTACX_site8699] | 11 ± 0.81 |

| Sequence | gcPBM binding intensity (ln) |
| --- | --- |
| ATGATACATAAAGAATATAAAACATGAAATATAATA [CACACA_negctrl_site1461] | 9.87 ± 0.12 |
| ATTTATTGACTATTTACACACATATTTATTAGAATA [CACACA_site6863] | 10.1 ± 0.19 |
| GGGAGGATAGTTCACAGTACCCAGTAACTCTACGGA [XGTACX_site2558] | 10.8 ± 0.52 |
| TTTTTTACGCATAACTTAATATGAGAATCCCTTTCT [GTGCAC_negctrl_site522] | 10.2 ± 0.2 |
| CCACACTTAAAATACACACACACCAAAAAAAAAAAA [CACACA_site2709] | 10.1 ± 0.52 |
| AACTGAGAAACCGAAGTGCAATATGTATATATACAT | 10.03 ± 0.028 |
| ATATATAATATATATGCATGTGACATTAATAATATA [TGCATGCA_site880] | 9.935 ± 0.035 |
| ATATGAAAGGTGTACACACGCACACCCAAAAAAATA [CACACA_site2911] | 11.7 ± 0.95 |
| TAATTTAAAAATATAAATGTTTCACTTATATATTTT [TGCATGCA_negctrl_site399] | 9.41 ± 0.27 |
| ATTTTTATTTTCTTTACACACCACATAATTTTTTTT [CACACA_site6092] | 10.3 ± 0.25 |
| AAAAAAAAAAAAAAAACACACATTTGAAAGAAAGAA [CACACA_site3339] | 10.3 ± 0.18 |
| TACACCCATGGACACACACACACGCATAAAAAAAAA [CACACA_site4933] | 11.1 ± 0.81 |
| GCCACACTTTTCTGCACACATAAAAAATATATAAAT [CACACA_site578] | 10.6 ± 0.57 |
| CATAAGAGGAACTTTTGTACTTATATGTATATAGTA [XGTACX_site5836] | 11 ± 0.52 |
| TATATCGTTATATAAACACACAATATGTTTTTTATA [CACACA_site7730] | 9.71 ± 0.15 |
| CTTTTATGAAACAGTGCACACATAAAAATATATACA [CACACA_site8981] | 10.5 ± 0.35 |
| ATGAACATTTATAAATGTACTCACATATATATATTT [XGTACX_site6692] | 11.1 ± 0.73 |
| TTTATATTTATCCAAAGTACTTTTTAAAAACATACC [XGTACX_site4518] | 11.1 ± 0.79 |
| AAGTTTTTTATTTTTTGTACATAAAAAATAATAATT [XGTACX_site1755] | 11 ± 0.67 |
| TATGTATTTATATATACACACTTCTGTGATACGAAA [CACACA_site5128] | 10 ± 0.2 |
| AGATATATATTTTATTGTACACATTAAAGTATAAAA [XGTACX_site7194] | 11.5 ± 1.1 |
| AACATTTTTAGATTATATTATTAAATAAGTAACTGC [XGTACX_negctrl_site326] | 9.88 ± 0.11 |
| AACACTTTAATTTATGCACACATATGGAACAACAGC [CACACA_site8241] | 10.4 ± 0.26 |

| Sequence | gcPBM binding intensity (ln) |
| --- | --- |
| TTTTTTTTAATATTTTACATTGTCTGTTAACAAATA [CACACA_negctrl_site599] | 9.905 ± 0.021 |
| TTTTTGTTTTTTTTTTGTACATATATATAAAAAATA [XGTACX_site1214] | 11.1 ± 0.81 |
| ACACATACATACATATGTACATATATACATATATAC [XGTACX_site5559] | 11.1 ± 0.44 |
| TATATATATATGCTACGTACATATATATTATATATA [XGTACX_site7894] | 11.2 ± 0.55 |
| TATCATAATAGACACAGTACATATATGTCTTAAATT [XGTACX_site8775] | 10.6 ± 0.38 |
| GTATTCTTCTCTCCGTGTACATATATATGTATATAT [XGTACX_site803] | 11.3 ± 0.61 |
| AGTAAACGATGATGTTGTACAAAAAGGATAATTTAA [XGTACX_site6698] | 11.1 ± 0.52 |
| TTTTTATTTTTTATGTAATTTAAATAATTATTCAAA [CACACA_negctrl_site1549] | 9.89 ± 0.32 |
| CAATACTATTATTATAGTACGTATAAAATTATATAT [XGTACX_site4950] | 11.1 ± 0.68 |
| TACAAAAAAGAAGATATTCAAACAAAAACAAAAAAA [CACACA_negctrl_site1126] | 9.715 ± 0.007 |
| ATAGTTTATACAAATAGTACGCACAAAAAAAAATAA [XGTACX_site6727] | 11.5 ± 0.91 |
| TATATATTATATATATGTACATATTTATTTTATTTT [XGTACX_site6989] | 11.2 ± 0.69 |
| AATACCGGAAAGCAAACACACATTTGAAAACCATAA [CACACA_site7761] | 9.92 ± 0.042 |
| AAAAAATTTCAAATGACATAATGTAATTTCCCTTTT [GTGCAC_negctrl_site673] | 9.61 ± 0.18 |
| TTTATCAAAATAAATGCACACAAATTGCACATATCT [CACACA_site8281] | 10.1 ± 0.13 |
| AAACCGTGGGAGCACACACACACACGCGCACATATA [CACACA_site6288] | 10.7 ± 0.38 |
| TGTTTCTAAAAAAAAGGTACACATATATATAATATA [XGTACX_site3217] | 11.4 ± 0.93 |
| GTAACCCACCAAAATGCACACATTAAAAAAAAAAAA [CACACA_site1046] | 10.2 ± 0.48 |
| TATATATAAACAAAATGTACATATTTGAGATACCCT [XGTACX_site2195] | 11.2 ± 0.68 |
| TATCTGTATTTATTCACACATATAAAATATAATTAA [CACACA_site5560] | 9.96 ± 0.25 |
| ATGAATAAATAGGTCACACACAAATATTTATAAATA [CACACA_site7186] | 10.5 ± 0.42 |
| TATATACAATATAGGTGTACATTTTTTTATCTATTT [XGTACX_site8431] | 11.3 ± 0.69 |
| TCTGGCATATAATATTGTACACATATATATATATAT [XGTACX_site8182] | 11.3 ± 0.67 |

| Sequence | gcPBM binding intensity (ln) |
| --- | --- |
| ACATGAATTTATATGTGTACTAACTATATTCTTAAA [XGTACX_site5966] | 11.5 ± 1.1 |
| TATATGTTAATTTTTTTTTTTTTTTTTTTTTTTATA [CACACA_negctrl_site62] | 9.34 ± 0.13 |
| AAAGTACAAGTATAATCACACGTGTCTATTATATAC [CACACA_site4507] | 10.8 ± 0.58 |
| AACGGGGGTAGTTTTATGCACACGTTTATTAATGCT [CACACA_site3173] | 10.7 ± 0.33 |
| GATATGAATATAGGTTGTACTATATATAAAGTATGT [XGTACX_site1877] | 11.1 ± 0.84 |
| CTTTCAATTTTTTTCTGTACCAATAAAAAATATAAA [XGTACX_site2120] | 11.1 ± 0.81 |
| TTGAGCATAAAATTTGGAAACCTCAATCGGACAAAA [GTGCAC_negctrl_site84] | 10.9 ± 0.59 |
| AATATCTTAGTGGATACACACATATAAATGTGTATT [CACACA_site6367] | 10.4 ± 0.3 |
| ATAATGTTTTATAATACACACATTATATATATAAAT [CACACA_site6101] | 10.03 ± 0.085 |
| ATATTTATGTAAAAAAGTACATACAATTATATATGT [XGTACX_site3750] | 11.5 ± 1.1 |
| GATTACAAAAAAAATACACACAAAAAAAAAAAGGAA [CACACA_site2096] | 9.9 ± 0.23 |
| TATATATAATATTGCACACAAAATTAAAAGTAAATA [CACACA_site19] | 10.1 ± 0.37 |
| CATAAATGTCTCACATGTACATATGCATTTTTAAAA [XGTACX_site3194] | 11.2 ± 0.79 |
| CAACTCTTATTTAATTATATGAATTAATTTATATGA [CACACA_negctrl_site200] | 9.91 ± 0.29 |
| TGCATAAATTTATGCACACATAAAAAAAAAAAAAAA [CACACA_site2923] | 10 ± 0.58 |
| ATTATGTTAATAATATGTACATATATCTACATATAT [XGTACX_site7978] | 11.2 ± 0.64 |
| TTAAATACTAAAAAGTGTACACATACATAAAAAATT [XGTACX_site6261] | 11.7 ± 0.92 |
| GAGTATATTTATATTGCACACAATTTTTTTATTTTT [CACACA_site2644] | 10.1 ± 0.13 |
| ATTATTTTGTTTATTACATGCAGGTGTATATTACAG [TGCATGCA_site723] | 10.1 ± 0.23 |
| TTATTAACCTAAATTAGTACATATAATATAAAAAAT [XGTACX_site8661] | 11.2 ± 0.66 |
